Assay results taken from patent US20100036088A1, “Selective poly-N-substituted glycine antibiotics” (priority 2008, published 2010).
Part of at least one peptide drawing is inferred or uncertain, most often the ends. Marks after values point to notes of the source that are not given here. Numbered stars: 1 amine (or outer) side, 2 acyl side, 3 side chain; on linkers, the order of the positions; unused ones are H or OH. Square brackets hold non-standard residues; d marks the D form. Peptide text beside a SMILES is read from it. X3 = C[C@@H](c1ccc2ccccc2c1)N(CC(=O)[*:2])[*:1]; N(1S-Me-propyl)Gly = CC[C@H](C)NCC(=O)O; X1 = CC(C)[C@H](C)N(CC(=O)[*:2])[*:1]; Nspe = C[C@H](NCC(=O)O)c1ccccc1; Nlys = NCCCCNCC(=O)O

Assay: RP-HPLC elution solvent composition as measure of molecular hydrophobicity
Assay type: physicochemical
Settings: Table 1; 10 mM ammonium acetate and no TFA, pH 7.0
Text: An initial set of 15 ampetoid analogs was synthesized to determine whether peptoids are affected by structural and sequence modifications in a manner consistent with AMP activities. The designs for ampetoids in this library were derived from two antibacterial and selective amphipathic dodecamers, 1 and 2. Peptoid 1 [H-(Nlys-Nspe-Nspe)4—NH2] is composed of 2/3 Nspe, the peptoid analog of phenylalanine, and 1/3 Nlys, the peptoid analog of lysine (see FIG. 1 for the structures of representative peptoid monomers and corresponding N-substituents). Peptoid 2 [H-(Nlys-Nssb-Nspe)4—NH2] contains 1/3 isoleucine-like Nssb monomers in place of Nspe. The variant sequences were designed to effect changes in chirality, length, hydrophobicity, charge, and amphipathicity. All of these compounds were tested for antibacterial activity against representative BSL1 Gram-negative (E. coli JM109) and Gram-positive (B. subtilis BR151) bacterial strains. As an initial measure of selectivity, the lytic activity of the peptoids was determined against human erythrocytes. Table 1 summarizes the sequences synthesized, the solvent composition at RP-HPLC elution as a relative measure of molecular hydrophobicity, and antibacterial and hemolytic activities.
Following synthesis, peptoid oligomers can be cleaved from the resin, simultaneously removing the tert-butoxycarbonyl (Boc) protecting group from Nlys residues, by treatment with 10 ml 2,2,2-trifluoroacetic acid (TFA)/triisopropylsilane/H2O (95:2.5:2.5 by volume) for 30 min. The cleavage mixture is then diluted with 25 ml 50% aqueous acetonitrile, frozen, and lyophilized. Dilution and lyophilization is repeated twice more in order to remove excess TFA. Subsequent to cleavage, peptoids are each purified to >97% homogeneity by preparative scale reversed-phase HPLC using a Waters Prep LC 4000 system, with Waters 2487 dual-wavelength UV detection, and gradient elution (solvent A, 0.1 vol % trifluoroacetic acid (TFA) in water; solvent B, 0.1 vol % TFA in acetonitrile) through a Vydac (Hysperia, Calif.) 214TP101550 C4 peptide/protein column (10-15 μm, 300 Å, 5×25 cm). Following prep HPLC, peptoid purities and crude yields were determined from analytical scale HPLC, performed with a Waters 2695 Separations Module with a Waters 2487 dual-wavelength UV detector and gradient elution (solvent A, 0.1 vol % TFA in water; solvent B, 0.1 vol % TFA in acetonitrile) through a Vydac C4 214TP53 peptide/protein column (5 μm, 300 Å, 3.2×250 mm). The precise gradient employed for HPLC depended on the identity and hydrophobicity of the oligomer in question. All analytical HPLC was performed at 0.5 ml/min flow and 58° C. Preparative HPLC was performed at 50 ml/min flow and room temperature.

With `C[C@@H](c1ccccc1)N(CC(N)=O)C(=O)CN(C(=O)CN(CCC(=O)O)C(=O)CN(C(=O)CN(C(=O)CN(CCC(=O)O)C(=O)CN(C(=O)CN(C(=O)CN(CCC(=O)O)C(=O)CN(C(=O)CN(C(=O)CNCCC(=O)O)[C@@H](C)c1ccccc1)[C@@H](C)c1ccccc1)[C@@H](C)c1ccccc1)[C@@H](C)c1ccccc1)[C@@H](C)c1ccccc1)[C@@H](C)c1ccccc1)[C@@H](C)c1ccccc1` [1-Nglu1,4,7,10] as the compound, how does the HPLC elution solvent read?
Its HPLC elution solvent is 54%†.

Which HPLC elution solvent does the source give for `C[C@@H](c1ccccc1)N(CC(N)=O)C(=O)CN(C(=O)CN(CCC(=O)O)C(=O)CN(C(=O)CN(C(=O)CN(CCCCN)C(=O)CN(C(=O)CN(C(=O)CN(CCC(=O)O)C(=O)CN(C(=O)CN(C(=O)CNCCCCN)[C@@H](C)c1ccccc1)[C@@H](C)c1ccccc1)[C@@H](C)c1ccccc1)[C@@H](C)c1ccccc1)[C@@H](C)c1ccccc1)[C@@H](C)c1ccccc1)[C@@H](C)c1ccccc1` [1-Nglu4,10] here?
Its HPLC elution solvent is 60%†.

Same assay, conditions: Table 1; percent acetonitrile in water, 0.1% (v/v) TFA at HPLC elution

Which HPLC elution solvent does the source give for `C[C@@H](c1ccccc1)N(CC(N)=O)C(=O)CN(C(=O)CN(C(=O)CN(C(=O)CN(C(=O)CN(C(=O)CN(C(=O)CN(C(=O)CN(CCCCN)C(=O)CN(CCCCN)C(=O)CN(CCCCN)C(=O)CNCCCCN)[C@@H](C)c1ccccc1)[C@@H](C)c1ccccc1)[C@@H](C)c1ccccc1)[C@@H](C)c1ccccc1)[C@@H](C)c1ccccc1)[C@@H](C)c1ccccc1)[C@@H](C)c1ccccc1` [1block, H-(Nlys)4-(Nspe)8-NH2] here?
The HPLC elution solvent was 54%.

For `CC[C@H](C)N(CC(=O)N(CC(N)=O)[C@@H](C)c1ccc2ccccc2c1)C(=O)CN(CCCCN)C(=O)CN(C(=O)CN(C(=O)CN(CCCCN)C(=O)CN(C(=O)CN(C(=O)CN(CCCCN)C(=O)CN(C(=O)CN(C(=O)CNCCCCN)[C@@H](C)CC)[C@@H](C)c1ccccc1)[C@@H](C)CC)[C@@H](C)c1ccc2ccccc2c1)[C@@H](C)CC)[C@@H](C)c1ccccc1` [2-Nsna6,12] (H-[Nlys][N(1S-Me-propyl)Gly][Nspe][Nlys][N(1S-Me-propyl)Gly][X3][Nlys][N(1S-Me-propyl)Gly][Nspe][Nlys][N(1S-Me-propyl)Gly][X3]-NH2), which HPLC elution solvent is on record?
The HPLC elution solvent was 47%.

With `CC[C@H](C)N(CC(=O)N(CC(=O)N(CC(=O)N(CCCCN)CC(N)=O)[C@@H](C)c1ccccc1)[C@@H](C)CC)C(=O)CN(CCCCN)C(=O)CN(C(=O)CN(CCCCN)C(=O)CN(C(=O)CN(C(=O)CN(C(=O)CN(C(=O)CNCCCCN)[C@@H](C)CC)[C@@H](C)c1ccccc1)[C@@H](C)CC)[C@@H](C)c1ccccc1)[C@@H](C)c1ccccc1` [2scrambled, H-Nlys-Nssb-Nspe-Nssb-Nspe-Nlys-Nspe-Nlys-Nssb-Nssb-Nspe-Nlys-NH2] (H-[Nlys][N(1S-Me-propyl)Gly][Nspe][N(1S-Me-propyl)Gly][Nspe][Nlys][Nspe][Nlys][N(1S-Me-propyl)Gly][N(1S-Me-propyl)Gly][Nspe][Nlys]-NH2) as the compound, how does the HPLC elution solvent read?
The HPLC elution solvent was 42%.

For `C[C@@H](c1ccccc1)N(CC(N)=O)C(=O)CN(C(=O)CN(CCCCN)C(=O)CN(C(=O)CN(C(=O)CNCCCCN)[C@@H](C)c1ccccc1)[C@@H](C)c1ccccc1)[C@@H](C)c1ccccc1` [16 mer, H-(Nlys-Nspe-Nspe)2-NH2] (H-[Nlys][Nspe][Nspe][Nlys][Nspe][Nspe]-NH2), which HPLC elution solvent is on record?
The HPLC elution solvent was 41%.

For `C[C@@H](c1ccccc1)N(CC(N)=O)C(=O)CN(C(=O)CN(CCCCN)C(=O)CN(C(=O)CN(C(=O)CN(CCCCN)C(=O)CN(C(=O)CN(C(=O)CNCCCCN)[C@@H](C)c1ccccc1)[C@@H](C)c1ccccc1)[C@@H](C)c1ccccc1)[C@@H](C)c1ccccc1)[C@@H](C)c1ccccc1` [19 mer, H-(Nlys-Nspe-Nspe)3-NH2] (H-[Nlys][Nspe][Nspe][Nlys][Nspe][Nspe][Nlys][Nspe][Nspe]-NH2), which HPLC elution solvent is on record?
The HPLC elution solvent was 46%.

Same assay, conditions: Table 2; percent acetonitrile in H2O, C18 column, 0.1% TFA, pH 1

With `C[C@@H](c1ccccc1)N(CC(N)=O)C(=O)CN(C(=O)CN(CCCCN)C(=O)CN(C(=O)CN(C(=O)CNCCCCN)[C@@H](C)c1ccccc1)[C@@H](C)c1ccccc1)[C@@H](C)c1ccccc1` [16 mer, H-(Nlys-Nspe-Nspe)2-NH2] (H-[Nlys][Nspe][Nspe][Nlys][Nspe][Nspe]-NH2) as the compound, how does the HPLC elution read?
Its HPLC elution is 47%.

With `C[C@@H](c1ccccc1)N(CC(N)=O)C(=O)CN(C(=O)CN(CCCCN)C(=O)CN(C(=O)CN(C(=O)CN(CCCCN)C(=O)CN(C(=O)CN(C(=O)CNCCCCN)[C@@H](C)c1ccccc1)[C@@H](C)c1ccccc1)[C@@H](C)c1ccccc1)[C@@H](C)c1ccccc1)[C@@H](C)c1ccccc1` [19 mer, H-(Nlys-Nspe-Nspe)3-NH2] (H-[Nlys][Nspe][Nspe][Nlys][Nspe][Nspe][Nlys][Nspe][Nspe]-NH2) as the compound, how does the HPLC elution read?
The HPLC elution was 46%.

Same assay, conditions: Table 5; average of three injections; linear 5%-95% acetonitrile/water (0.1% TFA) over 45 minutes, C18 column; measure of hydrophobicity

For `C[C@@H](c1ccccc1)N(CC(N)=O)C(=O)CN(CCCCN)C(=O)CN(CCCCN)C(=O)CN(C(=O)CN(C(=O)CN(CCCCN)C(=O)CN(C(=O)CN(CCCCN)C(=O)CN(CCCCN)C(=O)CN(C(=O)CN(C(=O)CNCCCCN)[C@@H](C)c1ccccc1)[C@@H](C)c1ccccc1)[C@@H](C)c1ccccc1)[C@@H](C)c1ccccc1)[C@@H](C)c1ccccc1` [1-Nlys5,11, H-(Nlys-Nspe-Nspe-Nlys-Nlys-Nspe)2-NH2] (H-[Nlys][Nspe][Nspe][Nlys][Nlys][Nspe][Nlys][Nspe][Nspe][Nlys][Nlys][Nspe]-NH2), which “HPLC elution (% ACN)” value is on record?
The value was 51.2 % ACN.

Which “HPLC elution (% ACN)” value does the source give for `C[C@@H](c1ccccc1)N(CC(N)=O)C(=O)CN(C(=O)CN(CCCCN)C(=O)CN(Cc1ccccc1)C(=O)CN(Cc1ccccc1)C(=O)CN(CCCCN)C(=O)CN(C(=O)CN(C(=O)CN(CCCCN)C(=O)CN(Cc1ccccc1)C(=O)CN(Cc1ccccc1)C(=O)CNCCCCN)[C@@H](C)c1ccccc1)[C@@H](C)c1ccccc1)[C@@H](C)c1ccccc1` [1-Npm2,3,8,9, H-(Nlys-Npm-Npm-Nlys-Nspe-Nspe)2-NH2] here?
The value was 63.3 % ACN.

Which “HPLC elution (% ACN)” value does the source give for `CC(C)[C@H](C)N(CC(=O)N(CCCCN)CC(=O)N(CC(=O)N(CC(=O)N(CCCCN)CC(=O)N(CC(=O)N(CC(=O)N(CCCCN)CC(=O)N(CC(=O)N(CC(N)=O)[C@@H](C)c1ccccc1)[C@@H](C)c1ccccc1)[C@@H](C)C(C)C)[C@@H](C)C(C)C)[C@@H](C)c1ccccc1)[C@@H](C)c1ccccc1)C(=O)CN(C(=O)CNCCCCN)[C@@H](C)C(C)C` [1-Nsdp2,3,8,9, H-(Nlys-Nsdp-Nsdp-Nlys-Nspe-Nspe)2-NH2] (H-[Nlys][X1][X1][Nlys][Nspe][Nspe][Nlys][X1][X1][Nlys][Nspe][Nspe]-NH2) here?
The value was 64.7 % ACN.

With `C[C@@H](c1ccccc1)N(CC(N)=O)C(=O)CN(C(=O)CN(CCCCN)C(=O)CN(C(=O)CN(C(=O)CN(CCCCN)C(=O)CN(C(=O)CN(C(=O)CN(CCCCN)C(=O)[C@@H]1CCCN1C(=O)CN(C(=O)CNCCCCN)[C@@H](C)c1ccccc1)[C@@H](C)c1ccccc1)[C@@H](C)c1ccccc1)[C@@H](C)c1ccccc1)[C@@H](C)c1ccccc1)[C@@H](C)c1ccccc1` [1-Pro3, H-Nlys-Nspe-L-Pro-(Nlys-Nspe-Nspe)3-NH2] (H-[Nlys][Nspe]P[Nlys][Nspe][Nspe][Nlys][Nspe][Nspe][Nlys][Nspe][Nspe]-NH2) as the compound, how does the “HPLC elution (% ACN)” value read?
Its value is 63.0 % ACN.

For `C[C@H](NCC(=O)N(CCCCN)CC(=O)N(CC(=O)N(CCCCN)CC(=O)N(CCCCN)CC(=O)N(CC(=O)N(CC(=O)N(CCCCN)CC(=O)N(CC(=O)N(CCCCN)CC(=O)N(CCCCN)CC(=O)N(CC(N)=O)[C@@H](C)c1ccccc1)[C@@H](C)c1ccccc1)[C@@H](C)c1ccccc1)[C@@H](C)c1ccccc1)[C@@H](C)c1ccccc1)c1ccccc1` [1B-Nlys4,10, H-(Nspe-Nlys-Nspe-Nlys-Nlys-Nspe)2-NH2] (H-[Nspe][Nlys][Nspe][Nlys][Nlys][Nspe][Nspe][Nlys][Nspe][Nlys][Nlys][Nspe]-NH2), which “HPLC elution (% ACN)” value is on record?
The value was 52.7 % ACN.

For `C[C@@H](c1ccccc1)N(CC(N)=O)C(=O)CN(Cc1ccccc1)C(=O)CN(CCCCN)C(=O)CN(Cc1ccccc1)C(=O)CN(Cc1ccccc1)C(=O)CN(CCCCN)C(=O)CN(Cc1ccccc1)C(=O)CN(Cc1ccccc1)C(=O)CN(CCCCN)C(=O)CN(Cc1ccccc1)C(=O)CN(Cc1ccccc1)C(=O)CNCCCCN` [1ach-Nspe12, H-(Nlys-Npm-Npm)3-(Nlys-Npm-Nspe)-NH2], which “HPLC elution (% ACN)” value is on record?
The value was 62.0 % ACN.

For `C[C@H](NCC(=O)N(CC(=O)N(CCCCN)CC(=O)N(CC(=O)N(CCCCN)CC(=O)N(CC(=O)N(CCCCN)CC(=O)N(CC(=O)N(CC(=O)N(CC(=O)N(CC(=O)N(CCCCN)CC(N)=O)[C@@H](C)c1ccccc1)[C@@H](C)c1ccccc1)[C@@H](C)c1ccccc1)[C@@H](C)c1ccccc1)[C@@H](C)c1ccccc1)[C@@H](C)c1ccccc1)[C@@H](C)c1ccccc1)c1ccccc1` [1scr, H-(Nspe)2-(Nlys-Nspe)3-(Nspe)3-Nlys-NH2] (H-[Nspe][Nspe][Nlys][Nspe][Nlys][Nspe][Nlys][Nspe][Nspe][Nspe][Nspe][Nlys]-NH2), which “HPLC elution (% ACN)” value is on record?
Its value is 61.1 % ACN.

For `C[C@@H](c1ccccc1)N(CC(N)=O)C(=O)CN(CCCCN)C(=O)CN(C(=O)CN(C(=O)CN(CCCCN)C(=O)CN(C(=O)CN(C(=O)CN(CCCCN)C(=O)CN(C(=O)CN(C(=O)CNCCCCN)[C@@H](C)c1ccccc1)[C@@H](C)c1ccccc1)[C@@H](C)c1ccccc1)[C@@H](C)c1ccccc1)[C@@H](C)c1ccccc1)[C@@H](C)c1ccccc1` [111mer, H-(Nlys-Nspe-Nspe)3-Nlys-Nspe-NH2] (H-[Nlys][Nspe][Nspe][Nlys][Nspe][Nspe][Nlys][Nspe][Nspe][Nlys][Nspe]-NH2), which “HPLC elution (% ACN)” value is on record?
Its value is 63.5 % ACN.
